Laboratory results as given in the RNAGym collection of RNA variant scans (doi:10.7554/elife.90254).
The source gives no read counts; variants with many changes may rest on few reads.

B1: LINE1-mini (parent)
chain: GGCAGAGCUCAACACAGCGUGGCAAAGUGGCUGUGGCUAGACUGCC

Variants of: B1
Assay: self-cleavage, relative activity (ratio to wild type); higher = more cleavage; in vitro, sequencing; the parent is a self-cleaving ribozyme

| Variant | self-cleavage |
| --- | --- |
| A4C C10A A11C C15G C18G C37A | 0.01 |
| A11U C18A G21U G30C C31G G40C | 0 |
| C3A G7U A14U G17C G19C | 0.1 |
| G7C C8U A16U C23U G27C | 0.38 |
| G7U A12G C13U C42U | 0.01 |
| G1C A12C G30A G36C | 0.01 |
| C8U C13A U38A G40U | 0.18 |
| G17U C31G C46A | 0.04 |
| C18A G22U C37U C45A | 0.07 |
| G1C C8G G19C | 0.02 |
| C3U C8U C15A | 0.53 |
| G7A U20G G27A | 0.02 |
| C10G G19U G22C | 0.05 |
| U9G C15U G21U G27A | 0.01 |
| G7U A26U G33U U38A | 0.09 |
| G1U A14C U34A | 0.02 |
| G17C C31U C37U A41U | 0.03 |
| A6U A11G C13U G33A | 0.04 |
| C3G A39G G40A | 0.26 |
| A4G G5U A11G | 0 |
| G5U U34G C46U | 0.01 |

| Variant | self-cleavage |
| --- | --- |
| C10G A16U U20A A26C U28A | 0.01 |
| G1U G19C A39C | 0 |
| A12G C13A G17U C23A | 0.03 |
| A4C G27A G36C C42A | 0.18 |
| A6U C13U U43C | 0.19 |
| G1C G35C A39C C46A | 0.01 |
| G2U C8G C18A | 0.02 |
| A6G G22U A26C A41C C45U | 0.21 |
| C10A A12U C23A C42U | 0.01 |
| G22U U32C U43C | 0.04 |
| A4G C13G G17C U20A G22C G33A G36A C37A | 0.02 |
| G2C G5C C15U G21C G33U C45U | 0.25 |
| A6U C8G G29A C45A | 0.03 |
| C3U A4G A12U A16G G22U G44C | 0.09 |
| G1U G17C A24C G30C C31U | 0.09 |
| G5U C15U G17C C18A G35U C37G A41C | 0.03 |
| A4C C23A G36U U38A | 0.03 |
| A14G G22C G35C C42G | 0.01 |
| G1C A16C C18G | 0.01 |
| G1A C13A G17C C23A G40A | 0.04 |
| G1C C31U G35A | 0.01 |

| Variant | self-cleavage |
| --- | --- |
| G22C U43C C46U | 0.02 |
| C10A A16G A41U | 0 |
| G17C C18U G44C | 0.06 |
| C13G G19A U34C C37U U43G | 0.02 |
| U9G C18G G44C | 0.01 |
| G17U C31U A39U | 0.01 |
| A4C C15G G21A G27C | 0.07 |
| G5C A11C C15A A16U G27U C31U G35U U43A | 0 |
| G17U G40C C46A | 0.05 |
| G7C A11G G29C | 0.02 |
| U32A G33C A39C C45U | 0.02 |
| G2A C15A A25U | 0.11 |
| G1U C10A G22C C42G | 0 |
| G5A G27A G33A U43A G44U | 0.04 |
| G27A U34C G44U | 0.09 |
| A16C G29U U32G C42A C45G | 0.03 |
| G5U C18A G27A U32C | 0.13 |
| C10U G22C A41C | 0.02 |
| C3A C8G G17A | 0.19 |
| U9C A14C U32C | 0.03 |
| A11C G17A G19U | 0.03 |

| Variant | self-cleavage |
| --- | --- |
| C10U C15U G33C U43C | 0.02 |
| G1A G5U U20A A24G | 0.11 |
| G2U A16C G17A G40U | 0.11 |
| G19A G30U G44U | 0.69 |
| G1U C8A A14U U20A | 0.04 |
| A6U C10G A24G G33C G36U | 0.02 |
| G7C U20G C46A | 0.08 |
| G2C A24U G29A G33A | 0.12 |
| G5A G17C U32A | 0.14 |
| G2A C8U C10U G29U G35C A41C | 0.03 |
| C3G C13G G22U G29U C31A C37A | 0.09 |
| G27C C31U G44A | 0.05 |
| A6C C37A A39U | 0.08 |
| G17U C45U C46G | 0.04 |
| G7C A14U C18A U32G G33C U38A | 0.04 |
| G2C G7A C23U A26G G30U U38G | 0.06 |
| C15A C23U C42A | 0.04 |
| C18U G19C G35U C37A G40C | 0.05 |
| G2A G5U G7C C13A C15A C37U | 0.37 |
| G5U G17A A24C G30C A41C | 0.01 |
